Holding throughout (format): cell-based
The subject of data set [1] is Streptococcus pneumoniae (Chester, ATCC49619). In words: broth microdilution MIC assay, Streptococcus pneumoniae. To be noted: MIC100 class score, 24 h. (In general: In broth dilution the organism is exposed to a series of concentrations in liquid medium.)
The test system of data set [2] is Human keratinocytes (HaCaT cells). Put plainly: human cytotoxicity assay in vitro (CellTiter-Glo), keratinocytes. Details: key: 4: compounds inhibiting cell viability 50% or more at concentrations of 5 μM or less; 3: compounds causing more than 50% inhibition of cell viability at 10 μM; compounds causing >50% inhibition of cell viability at 25 μM; 1: compounds causing less than 50% inhibition of cell viability at 50 μM; compounds not causing loss of cell viability at concentrations of 50 μM or higher. To be noted: cytotoxicity class. A general note: ATP-based viability assays read luminescence as a measure of living cells.

Data set [3] deals with Human hepatocytes (HepaRG cells). Put plainly: human cytotoxicity assay in vitro (CellTiter-Glo), hepatocytes. To be noted: cytotoxicity class.

For the molecule `Cc1nc(-c2ccc(-c3ccccc3OC(F)(F)F)o2)[nH]c1CC(C)C` [Compound 93], the “Antibacterial activity Streptococcus pneumoniae” value in data set [1] is on record as 4 (MIC of 1 μg/ml or less for preventing streptococcal growth 100% (MIC100)).
Regarding `CCCc1nc(-c2coc(-c3ccccc3C(F)(F)F)c2)[nH]c1C` [Compound 112], in data set [1], the “Antibacterial activity Streptococcus pneumoniae” value is 4 (MIC of 1 μg/ml or less for preventing streptococcal growth 100% (MIC100)).
Take `Cc1[nH]c(-c2cc(C)n(-c3cccc(C(F)(F)F)c3)c2C)nc1-c1ccccc1` [Compound 36]: in data set [2], the “cytotoxicity cell line K (keratinocytes)” value is reported as 2.
As to `Cc1ccc(-c2ccc(-c3nc(-c4ccccc4)c(C)[nH]3)o2)cc1` [Compound 52], the “cytotoxicity cell line K (keratinocytes)” value in data set [2] was found to be 2.
For `Cc1[nH]c(-c2ccc(-c3cccc(Cl)c3)s2)nc1-c1ccccc1` [Compound 12], the “cytotoxicity cell line K (keratinocytes)” value in data set [2] stood at 2. In addition, the “cytotoxicity cell line H (hepatocytes)” value in data set [3] is 1 (compounds not causing a loss of viability at concentrations between 25 and 50 μM).
As to `Cc1[nH]c(-c2cc(C)n(-c3ccc(F)c(F)c3F)c2C)nc1-c1ccccc1` [Compound 10], the “cytotoxicity cell line K (keratinocytes)” value in data set [2] was 2.
`Cc1[nH]c(-c2ccc(-c3ccccc3C(F)(F)F)o2)nc1-c1ccc(Br)cc1` [Compound 25]: the “cytotoxicity cell line K (keratinocytes)” value in data set [2] was 0 (compounds not causing loss of cell viability at concentrations of 50 μM or higher). Also, the “cytotoxicity cell line H (hepatocytes)” value in data set [3] is listed as 0 (compounds without signs of cell viability loss at concentrations of 50 μM or higher).
For `Cc1nc(-c2ccc(-c3cccc(OC(F)(F)F)c3)o2)[nH]c1-c1ccccc1` [Compound 34], the “cytotoxicity cell line K (keratinocytes)” value in data set [2] turned out to be 2.
Regarding `Cc1nc(-c2ccc(-c3cccc(Cl)c3)o2)[nH]c1-c1ccccc1` [Compound 4], the “cytotoxicity cell line K (keratinocytes)” value in data set [2] amounted to 2.
Consider `Cc1[nH]c(-c2ccc(-c3ccccc3OC(F)(F)F)o2)nc1-c1ccc(Cl)cc1` [Compound 24], for which the “cytotoxicity cell line K (keratinocytes)” value in data set [2] came out at 2. In data set [1], the “Antibacterial activity Streptococcus pneumoniae” value is reported as 4 (MIC of 1 μg/ml or less for preventing streptococcal growth 100% (MIC100)).
Consider `Cc1ccccc1-c1ccc(-c2nc(-c3ccccc3)c(C)[nH]2)o1` [Compound 61], for which the “cytotoxicity cell line K (keratinocytes)” value in data set [2] worked out at 2.
For `Cc1ccc(-c2nc(-c3nc(-c4ccccc4)c(C)[nH]3)cs2)cc1` [Compound 56], the “cytotoxicity cell line K (keratinocytes)” value in data set [2] stood at 3. Also, the “cytotoxicity cell line H (hepatocytes)” value in data set [3] is 1 (compounds not causing a loss of viability at concentrations between 25 and 50 μM).
For the molecule `Cc1[nH]c(-c2ccc(-c3ccccc3C(F)(F)F)o2)nc1-c1cccc(Cl)c1` [Compound 22], in data set [2], the “cytotoxicity cell line K (keratinocytes)” value turned out to be 2.
Same read-out and setting: the value for `Cc1cccc(C)c1-c1ccc(-c2nc(-c3ccccc3)c(C)[nH]2)o1` [Compound 62] was 2; that for `COc1ccc(-c2ccc(-c3nc(C)c(-c4ccccc4)[nH]3)o2)c(C(F)(F)F)c1` [Compound 31] was 0 (compounds not causing loss of cell viability at concentrations of 50 μM or higher).
For `Cc1[nH]c(-c2ccc(-c3ccccc3)s2)nc1-c1ccccc1` [Compound 74], the “cytotoxicity cell line K (keratinocytes)” value in data set [2] is recorded as 3. Moreover, the “cytotoxicity cell line H (hepatocytes)” value in data set [3] was 1 (compounds not causing a loss of viability at concentrations between 25 and 50 μM).
Regarding `CCc1ccc(-c2ccc(-c3nc(-c4ccccc4)c(C)[nH]3)o2)cc1` [Compound 53], the “cytotoxicity cell line K (keratinocytes)” value in data set [2] is recorded as 1.
Consider `Cc1[nH]c(-c2ccc(-c3cccc(Cl)c3Cl)o2)nc1-c1ccccc1` [Compound 2], for which the “cytotoxicity cell line K (keratinocytes)” value in data set [2] worked out at 1.
`Cc1ccccc1-c1c[nH]c(-c2ccc(-c3ccccc3OC(F)(F)F)o2)n1` [Compound 66]: the “cytotoxicity cell line K (keratinocytes)” value in data set [2] is given as 1. Besides, the “Antibacterial activity Streptococcus pneumoniae” value in data set [1] is on record as 4 (MIC of 1 μg/ml or less for preventing streptococcal growth 100% (MIC100)).
With `Cc1[nH]c(-c2ccc(-c3ccccc3OC(F)(F)F)o2)nc1-c1ccc(C(F)(F)F)cc1` [Compound 26], in data set [2], the “cytotoxicity cell line K (keratinocytes)” value was 0 (compounds not causing loss of cell viability at concentrations of 50 μM or higher). Besides, the “cytotoxicity cell line H (hepatocytes)” value in data set [3] is 1 (compounds not causing a loss of viability at concentrations between 25 and 50 μM).
Consider `Cc1[nH]c(-c2ccc(-c3ccccc3Cl)o2)nc1-c1ccccc1` [Compound 3], for which the “cytotoxicity cell line K (keratinocytes)” value in data set [2] was found to be 1.
On to `Cc1[nH]c(-c2ccc(-c3ccc(C(F)(F)F)c(Cl)c3)o2)nc1-c1ccc(F)cc1` [Compound 49], for which the “cytotoxicity cell line K (keratinocytes)” value in data set [2] is recorded as 2.
Same read-out and setting: to `Cc1[nH]c(-c2coc(-c3ccccc3C(F)(F)F)c2)nc1-c1ccccc1` [Compound 72] belongs 2; to `Cc1nc(-c2ccc(-c3ccc(Cl)cc3Cl)o2)[nH]c1-c1ccccc1` [Compound 1], 2.
Consider `Cc1[nH]c(-c2cc(C)n(-c3ccc(C(C)C)cc3)c2C)nc1-c1ccccc1` [Compound 58], for which the “cytotoxicity cell line K (keratinocytes)” value in data set [2] came out at 2. For the same molecule, the “Antibacterial activity Streptococcus pneumoniae” value in data set [1] is reported as 4 (MIC of 1 μg/ml or less for preventing streptococcal growth 100% (MIC100)).
For `CCCc1nc(-c2cc(C)c(-c3ccccc3C(F)(F)F)s2)[nH]c1C` [Compound 115], the “Antibacterial activity Streptococcus pneumoniae” value in data set [1] is listed as 4 (MIC of 1 μg/ml or less for preventing streptococcal growth 100% (MIC100)).
For `Cc1[nH]c(-c2ccc(-c3cc(C(F)(F)F)ccc3Cl)o2)nc1-c1ccccc1` [Compound 40], in data set [2], the “cytotoxicity cell line K (keratinocytes)” value came to 1.
`Cc1nc(-c2ccc(-c3ccc(Cl)c(OC(F)(F)F)c3)o2)[nH]c1-c1ccc(F)cc1` [Compound 43]: the “Antibacterial activity Streptococcus pneumoniae” value in data set [1] is 4 (MIC of 1 μg/ml or less for preventing streptococcal growth 100% (MIC100)).
In the case of `Cc1nc(-c2ccc(-c3cc(C(F)(F)F)cc(C(F)(F)F)c3)o2)[nH]c1-c1ccccc1` [Compound 35], the “cytotoxicity cell line K (keratinocytes)” value in data set [2] is reported as 1. Also, the “cytotoxicity cell line H (hepatocytes)” value in data set [3] is 1 (compounds not causing a loss of viability at concentrations between 25 and 50 μM).
For the molecule `Cc1[nH]c(-c2ccc(-c3ccc(C(F)(F)F)cc3)o2)nc1-c1ccccc1` [Compound 45], the “cytotoxicity cell line K (keratinocytes)” value in data set [2] is recorded as 1. Further, the “cytotoxicity cell line H (hepatocytes)” value in data set [3] is 1 (compounds not causing a loss of viability at concentrations between 25 and 50 μM).
With `FC(F)(F)c1ccccc1-c1ccc(-c2nc(Cl)c(-c3ccccc3)[nH]2)o1` [Compound 65], the “Antibacterial activity Streptococcus pneumoniae” value in data set [1] is given as 4 (MIC of 1 μg/ml or less for preventing streptococcal growth 100% (MIC100)).
The same measure, in the same setting: to `CCCc1[nH]c(-c2ccc(-c3ccc(Cl)cc3Cl)o2)nc1C` [Compound 109] belongs 4 (MIC of 1 μg/ml or less for preventing streptococcal growth 100% (MIC100)).
In the case of `CCCc1nc(-c2ccc(-c3ccccc3N(C)C)o2)[nH]c1C` [Compound 98], the “Antibacterial activity Streptococcus pneumoniae” value in data set [1] is 4 (MIC of 1 μg/ml or less for preventing streptococcal growth 100% (MIC100)).
Turning to `Cc1nc(-c2ccc(-c3cc(F)ccc3C(F)(F)F)o2)[nH]c1-c1ccccc1` [Compound 31a], the “cytotoxicity cell line K (keratinocytes)” value in data set [2] came to 1.
For `CCCc1[nH]c(-c2ccc(-c3ccccc3Cl)s2)nc1C` [Compound 82], in data set [1], the “Antibacterial activity Streptococcus pneumoniae” value is recorded as 4 (MIC of 1 μg/ml or less for preventing streptococcal growth 100% (MIC100)).
Take `Cc1nc(-c2ccc(-c3ccccc3OC(F)(F)F)o2)[nH]c1-c1cccc(Cl)c1` [Compound 21]: the “cytotoxicity cell line K (keratinocytes)” value in data set [2] turned out to be 2. Besides, the “Antibacterial activity Streptococcus pneumoniae” value in data set [1] is given as 4 (MIC of 1 μg/ml or less for preventing streptococcal growth 100% (MIC100)).
For the molecule `Cc1[nH]c(-c2cc(C)n(-c3ccc4c(c3)CCC4)c2C)nc1-c1ccccc1` [Compound 59], in data set [2], the “cytotoxicity cell line K (keratinocytes)” value turned out to be 2.
Still for that read-out and setting: the value for `Cc1nc(-c2ccc(-c3ccccc3N(C)C)o2)[nH]c1-c1ccccc1` [Compound 71] was 1.
Same read-out and setting: to `CN(C)Cc1[nH]c(-c2ccc(-c3ccccc3C(F)(F)F)o2)nc1-c1ccccc1` [Compound 70] belongs 2.
Take `Cc1[nH]c(-c2ccc(-c3ccccc3OC(F)(F)F)o2)nc1Cc1ccc(Br)cc1` [Compound 30, 4-(4-Bromo-benzyl)-5-methyl-2-[5-(2-trifluoromethoxy-phenyl)-furan-2-yl]-1H-imidazole]: the “cytotoxicity cell line K (keratinocytes)” value in data set [2] came out at 3. Moreover, in data set [1], the “Antibacterial activity Streptococcus pneumoniae” value is given as 4 (MIC of 1 μg/ml or less for preventing streptococcal growth 100% (MIC100)).
As for `Cc1[nH]c(-c2cnn(-c3ccccc3)n2)nc1-c1ccccc1` [Compound 73], the “cytotoxicity cell line H (hepatocytes)” value in data set [3] was 1 (compounds not causing a loss of viability at concentrations between 25 and 50 μM).
Turning to `Cc1[nH]c(-c2ccc(-c3ccc(OC(F)(F)F)cc3)o2)nc1-c1ccc(Cl)cc1` [Compound 48], the “cytotoxicity cell line K (keratinocytes)” value in data set [2] turned out to be 1. For the same molecule, in data set [1], the “Antibacterial activity Streptococcus pneumoniae” value is reported as 4 (MIC of 1 μg/ml or less for preventing streptococcal growth 100% (MIC100)).
With `FC(F)(F)Oc1ccccc1-c1ccc(-c2nc(-c3ccc(Cl)cc3Cl)c[nH]2)o1` [Compound 68], the “cytotoxicity cell line K (keratinocytes)” value in data set [2] is 2.
Consider `CCCc1nc(-c2csc(-c3ccccc3C(F)(F)F)c2)[nH]c1C` [Compound 113], for which, in data set [1], the “Antibacterial activity Streptococcus pneumoniae” value was 4 (MIC of 1 μg/ml or less for preventing streptococcal growth 100% (MIC100)).
For `FC(F)(F)Oc1ccccc1-c1ccc(-c2nc(-c3ccccc3Cl)c[nH]2)o1` [Compound 67], the “cytotoxicity cell line K (keratinocytes)” value in data set [2] worked out at 2.
For the molecule `Cc1nc(-c2ccc(-c3cccc(OC(F)(F)F)c3)o2)[nH]c1-c1ccc(F)cc1` [Compound 37], the “cytotoxicity cell line K (keratinocytes)” value in data set [2] is 2. Besides, the “Antibacterial activity Streptococcus pneumoniae” value in data set [1] is on record as 4 (MIC of 1 μg/ml or less for preventing streptococcal growth 100% (MIC100)).
As for `Cc1ccc(-c2ncc(-c3nc(-c4ccccc4)c(C)[nH]3)s2)cc1` [Compound 55], the “cytotoxicity cell line H (hepatocytes)” value in data set [3] was 1 (compounds not causing a loss of viability at concentrations between 25 and 50 μM).

For the origin of these results see patent US10322110B2, “Imidazole-based antimicrobial agents” (priority 2014, dated 2019).
